# Assay results taken from the supplement of paper PMC3334620.
# Over roughly 33,000 sequences, “E-score (-0.5 to 0.5)” has its median near -0.016; the highest 2% begin near 0.31. The list shows a part of the results.
# Target: Cst6 (UniProt P40535)
# Test: PBM E-score (8-mer binding enrichment) (E-score (-0.5 to 0.5)); higher = stronger / more preferred TF binding; most listed sequences are background and not binding sites
# Conditions: protein concentration: 200 nM; construct: GST-DNA-binding domain
# How it was run: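 Full-length yeast transcription factors or their DNA-binding domains, GST-tagged and expressed with PURExpress, were applied at about 100-200 nM to universal all-10-mer Agilent arrays. These arrays had been made double-stranded by primer extension on fresh or once-stripped slides. Detection used fluorescent anti-GST, normalisation used masliner, and E-scores for ungapped eight-base words pooled with reverse complements came from the Universal PBM Analysis Suite.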
row,Sequence,PBM E-score
1,AGGACCAC,-0.347
2,GATTCCAC,0.097
3,GTCCTTTA,-0.0901
4,GGCGGGAC,-0.222
5,ACCTCGTC,-0.0551
6,CGCGCCAG,0.0582
7,GTGCCTCA,0.0677
8,GGTGGAAA,-0.0896
9,GGTAAAAA,0.227
10,GCTAAAGA,0.127
11,TCTGATAA,0.0469
12,TATCCAAA,0.121
13,AAGGACAC,-0.0911
14,ACTGTCGC,-0.277
15,CACGCGGC,0.279
16,CAATACTC,0.0606
17,ATGAGCTC,0.12
18,CGATGGGC,-0.128
19,CTCTGTTC,-0.179
20,CTAGAAAA,0.0743
21,GCTCCAGC,-0.0194
22,AGTCGTAA,0.0707

row,Sequence,PBM E-score
1,GCCACGGC,0.198
2,GGGAGCAA,-0.289
3,GAAGCTCC,-0.23
4,CCCAAGCA,-0.00848
5,CATACAGC,-0.183
6,GCGCGTGA,0.186
7,AAAACCAC,0.0384
8,GGGTACAC,-0.146
9,CTCCATAC,-0.0429
10,ACACTAGG,-0.103
11,GACGCTTA,0.0361
12,GGCACGGA,0.0941
13,CCTCTCTA,-0.258
14,CTCTTGTA,-0.0608
15,CCAAGTAA,0.175
16,GTGCCCAC,-0.116
17,CTTTTAGA,0.0486
18,GACGAGTA,0.0509
19,AGAGTTAT,-0.0852
20,GACACAGC,0.0701
21,CCCCCGCC,-0.401
22,CTTACGGC,-0.0643

row,Sequence,PBM E-score
1,AAACCGGA,-0.0394
2,AACCTTTA,-0.0947
3,CCGTCCTC,-0.226
4,GCTTTGCA,-0.261
5,CTGGCGCA,-0.212
6,AACACCCC,-0.2
7,CACCCGCC,0.136
8,CGGGAAGC,-0.185
9,GGAACTAC,-0.0942
10,GAAAAACA,0.0134
11,CCCTGGCA,-0.22
12,TAGGAGGA,-0.0406
13,ACCTCAAA,0.128
14,ACTTACGA,0.224
15,AGGGTGGA,-0.262
16,ATAGTATG,0.111
17,ATAACCTC,0.0519
18,CAGTGTAG,0.0008
19,AAGACACA,0.0934
20,GTCCCGAA,-0.352
21,AAATATCT,0.0489
22,CAGCATGA,0.0354

row,Sequence,PBM E-score
1,ACCGGGTA,-0.051
2,GCTCACAA,0.217
3,ATATATAT,0.294
4,ATATCAAC,0.129
5,CGTCCAAC,-0.0323
6,CTAGGCTC,-0.149
7,ACCGCGTG,-0.182
8,CGATGTCA,0.319
9,AACGCTAG,-0.224
10,CCATCATC,0.146
11,ACGTCTCT,-0.028
12,AGAACGAG,0.117
13,TCCAGGCA,-0.0535
14,CCTATTCG,-0.218
15,CTCTGATA,0.0422
16,CGCGCAGC,-0.0832
17,ACTCGGTA,-0.0364
18,AAGATCAG,-0.125
19,TAGCCCTA,-0.181
20,CTGTGTCC,-0.113
21,CTTTTCTC,0.0528
22,ACTCTAGC,-0.199

row,Sequence,PBM E-score
1,GAGCACGC,-0.191
2,AAAGTCGA,-0.151
3,AACACGCT,-0.0524
4,AATCATAC,0.239
5,ACCGTCTA,-0.309
6,ATCCCCAA,0.0131
7,CGACTATC,-0.114
8,ATAGAAAT,0.206
9,AGTGATTA,0.203
10,AATCTGAC,0.15
11,CCCTCCGA,-0.369
12,GGCTCTCA,-0.117
13,CATACTTA,0.108
14,CAAGTCTA,-0.155
15,TAGGGCGA,-0.0553
16,TAATGAGA,0.0949
17,CCTGGTCC,-0.306
18,ATGCAGCA,-0.112
19,CAACGGTG,-0.263
20,CACCGCGA,-0.0105
21,ACGTCAAT,0.455
